In PubChem BioAssay AID1460 (National Center for Advancing Translational Sciences (NCATS), 2008):
Among all 270,000 compounds or so, about 5,800 (2.1%) were called active. Inconclusive means that the source gave no clear call. Such entries were picked first, then a sample of the others. Calls come from the whole dose curve; as a rule, active = well fitted inhibition curve with a large enough effect; inconclusive = small, poorly fitted or top-dose-only effect; inactive = flat fitted curve, though single readings scatter. Potencies beside an inconclusive call are fits to weak or partial responses and may not hold up.

Each molecule was assayed against Microtubule-associated protein tau (Homo sapiens) (UniProt P10636) (assay: qHTS for Inhibitors of Tau Fibril Formation, Thioflavin T Binding). Settings: recombinant tau K18 P301L (four-repeat tau fragment), heparin-induced fibrillization, ThT fluorescence; series mostly up to 57.4 µM; activity, negative = inhibition: at the top concentration.
Chain of UniProt P10636 (P10636 whole entry, looked up, the tested form may be a part): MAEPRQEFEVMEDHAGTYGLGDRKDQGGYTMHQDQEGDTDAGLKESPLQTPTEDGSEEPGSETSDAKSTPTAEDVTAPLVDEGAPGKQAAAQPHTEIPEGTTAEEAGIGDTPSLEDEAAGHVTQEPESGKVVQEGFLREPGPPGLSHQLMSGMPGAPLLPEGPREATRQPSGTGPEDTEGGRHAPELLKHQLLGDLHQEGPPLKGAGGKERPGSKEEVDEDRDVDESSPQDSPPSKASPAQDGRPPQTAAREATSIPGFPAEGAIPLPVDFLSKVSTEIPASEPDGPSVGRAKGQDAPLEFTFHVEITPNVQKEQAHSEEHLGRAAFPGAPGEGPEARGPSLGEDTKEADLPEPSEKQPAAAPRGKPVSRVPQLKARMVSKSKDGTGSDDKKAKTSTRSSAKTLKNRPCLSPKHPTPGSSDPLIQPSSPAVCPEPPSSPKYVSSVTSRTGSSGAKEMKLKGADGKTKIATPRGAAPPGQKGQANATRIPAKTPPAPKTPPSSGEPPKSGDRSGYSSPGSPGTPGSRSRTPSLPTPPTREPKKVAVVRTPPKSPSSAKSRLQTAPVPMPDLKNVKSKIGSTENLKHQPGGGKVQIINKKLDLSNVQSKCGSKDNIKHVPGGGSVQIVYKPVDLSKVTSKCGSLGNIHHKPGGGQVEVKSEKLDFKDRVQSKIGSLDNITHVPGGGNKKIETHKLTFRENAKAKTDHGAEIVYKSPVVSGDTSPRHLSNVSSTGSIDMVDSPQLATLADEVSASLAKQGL
How it was run: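 Heparin-induced (20 uM) aggregation of recombinant human K18 P301L tau, 15 uM unlabeled with 0.24 uM labeled, pH 7 acetate buffer, 6 hr at 37 C with compound. Fibrils quantified by 30 uM ThT fluorescence after 1 hr ambient incubation.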
% is set by controls: 0 for no effect and ±100 for the full control effect; potency is the fitted concentration of half-maximal effect; tags give direction and shape of the fitted curve.
Note: nearly all actives have a fitted effect of over 55% in size.

| Structure (SMILES) | activity, negative = inhibition | Potency |
| --- | --- | --- |
| CC(Sc1nnc2c(n1)C1(C)CCC2C1(C)C)C(=O)Nc1ccccc1 (centres undefined) | inactive: 0.0444% | – |
| O=C(CC(=O)NC1CCCCC1)N/N=C/c1ccccc1Cl | inactive: 7.57% | – |
| COC(=O)[C@@]1(Cc2ccccc2)[C@H]2c3cc(C(=O)N(C)C)n(Cc4nc5ccccc5[nH]4)c3C[C@H]2CN1C(=O)c1ccccc1 | – | inconclusive: 28.2 µM [inhibitor, single point] |
| N#Cc1ccc(CSc2nnc(Cc3cccs3)n2Cc2ccco2)cc1 | – | inconclusive: 22.4 µM [inhibitor, partial curve] |
| CCn1c(CNc2nc(-c3ccccc3)cs2)nnc1SCC(=O)NCc1ccccc1 | – | inconclusive: 25.1 µM [inhibitor, single point] |
| CCn1c(C)nc2cc(C(=O)N/N=C(\C)c3ccccc3O)ccc21 | – | inconclusive: 2.51 µM [inhibitor, partial curve] |
| CCn1c(-c2cc(-c3ccc(C)c(C)c3)nc3ccccc23)n[nH]c1=S | inactive: -17.3% | – |
| N=C1C(c2nc3ccccc3s2)=C(O)CN1NC(=O)c1ccc([N+](=O)[O-])cc1 | – | inconclusive: 39.8 µM [inhibitor, single point] |
| COc1ccc(NC(=S)NNc2ccc(S(=O)(=O)Nc3ccccc3C(=O)O)cc2[N+](=O)[O-])cc1 | – | active: 12.6 µM |
| Cc1ccccc1NC(=O)Cn1c(=O)n(Cc2ccccc2)c(=O)c2c(C)c(C)sc21 | – | inconclusive: 12.6 µM [activator, single point] |
| N#CC1=C2SCN(C3CCCCC3)CN2C(=O)CC1c1ccc(Cl)cc1 (centres undefined) | – | active: 28.2 µM |
| Cc1ccc(CNC(=O)C(=O)NCC(c2ccco2)S(=O)(=O)c2ccccc2)cc1 (centres undefined) | inactive: 6.53% | – |
| O=C(/C(=C/c1ccc(Cl)cc1)c1nc2ccccc2[nH]1)c1cccs1 | – | active: 15.8 µM |
| CCc1nnc(NC(=O)CSc2nc3c(cc2C#N)CCC3)s1 | – | active: 2 µM |
| O=C(O)c1cc2ccccc2[nH]1 | – | inconclusive: 1.12 µM [inhibitor, full curve, poor fit] |
| N#Cc1nc(-c2ccc(COc3ccccc3)o2)oc1N1CCCCC1 | – | inconclusive: 25.1 µM [inhibitor, single point] |
| Nc1nc2ccc(S(=O)(=O)N3CCCCC3)cc2s1 | – | active: 31.6 µM |
| CCOC(=O)C1CCN(C(=O)N(C)C)CC1 | – | inconclusive: 0.0251 µM [activator, full curve, poor fit] |
| CCCSC(=S)c1c(C)[nH]n(-c2ccccc2)c1=O | – | inconclusive: 17.8 µM [inhibitor, partial curve] |
| Cc1cc(C)n2[nH]c(=O)c(N=Nc3ccc(S(N)(=O)=O)cc3)c2n1 | – | inconclusive: 28.2 µM [inhibitor, partial curve, poor fit] |
| CCN(CC)S(=O)(=O)c1ccc(N2CCOCC2)c(NC(=S)NC(=O)c2ccco2)c1 | – | inconclusive: 17.8 µM [inhibitor, partial curve] |
| C/C(=N\NC(=O)c1cc(Cl)ccc1O)c1ccc(Br)s1 | – | inconclusive: 12.6 µM [inhibitor, partial curve] |
| CCCC(=O)Nc1ccc(C(=O)N/N=C/c2ccc([N+](=O)[O-])o2)cc1 | – | active: 8.91 µM |

| Structure (SMILES) | activity, negative = inhibition | Potency |
| --- | --- | --- |
| COc1cc(/C=N/O)ccc1OCc1ccc([N+](=O)[O-])cc1 | – | inconclusive: 20 µM [inhibitor, partial curve, poor fit] |
| O=C(OCC#CCSc1nnc(-c2cccc3ccccc23)o1)c1ccco1 | – | inconclusive: 1.58 µM [inhibitor, full curve, poor fit] |
| COc1ccc(NCC(=O)Nc2ccc(Cl)cc2C)c(OC)c1 | – | active: 31.6 µM |
| Cn1c(-c2cccc3ccccc23)n[nH]c1=S | inactive: 8.85% | – |
| COc1cc(/C=C/C(=O)OCC(=O)NC(=O)NC(C)C)ccc1OCC#N | inactive: 0.592% | – |
| O=c1cc(-c2ccccc2)oc2cc(O)c(O)cc12 | – | inconclusive: 10 µM [inhibitor, partial curve] |
| COc1cc(OC)c2c(=O)cc(-c3cccnc3)oc2c1 | inactive: 1.67% | – |
| CN1C(=O)C(N=Nc2ccccc2C(=O)O)N(C)C1=S (centres undefined) | – | active: 4.47 µM |
| Cc1ccc(-c2nnc(Nc3ccccc3)c3ccccc23)cc1S(=O)(=O)NCC1CCCO1 (centres undefined) | inactive: -2.26% | – |
| O=[N+]([O-])c1ccc(NC(=S)N2CCc3ccccc3C2)cc1 | – | inconclusive: 14.1 µM [inhibitor, partial curve] |
| O=C(CC(C(=O)O)c1ccc(Cl)cc1)c1ccccc1 (centres undefined) | inactive: -12% | – |
| CCN(CC)CCn1c(NCc2cccc(OC)c2)nc2ccccc21 | inactive: -9.17% | – |
| CCOC(=O)c1c(N)sc(C(=O)N2CCCC2)c1C | inactive: -9.35% | – |
| O=C(O)C(=O)/C(=C\c1cccc(Cl)c1)c1ccc2ccccc2n1 | – | inconclusive: 14.1 µM [inhibitor, partial curve] |
| CCOC(=O)/C(C#N)=C/c1cc2ccccc2nc1N1CCCCC1 | – | inconclusive: 28.2 µM [inhibitor, single point] |
| CC(C)[C@@H](OCc1ccccc1)[C@H](C)/C=N\OC[C@@H](O)[C@@H]1O[C@@H]2OC(C)(C)O[C@@H]2[C@H]1O | inactive: -7.99% [at 11.5 µM] | – |
| COc1ccc(C)cc1NC(=O)c1cc(S(=O)(=O)N2CCCCC2)c[nH]1 | inactive: -2.6% | – |
| C/C(N)=C(/C#N)C(=O)CSc1nnc(Nc2c(C)cccc2C)s1 | – | inconclusive: 44.7 µM [inhibitor, single point] |
| COc1cc(NC(=O)CCc2c(C)nn(-c3ccc(N4CCCCC4)nn3)c2C)cc(OC)c1OC | – | inconclusive: 25.1 µM [inhibitor, single point] |
| CCOc1ccc(CN(CCc2ccc3c(c2)OCO3)Cc2cc(OC)c(OC)cc2OC)cc1 | inactive: -9.41% | – |
| CCCCN1CC(c2nc3ccccc3n2CCCCOc2cccc(C)c2C)CC1=O (centres undefined) | inactive: 6.91% | – |
| Cn1c(=O)cc(SCC(=O)N2CCN(c3ccccc3F)CC2)c2ccccc21 | – | inconclusive: 20 µM [inhibitor, single point] |
| O=C(/C=C\NCC(=O)c1ccccc1)c1ccc(F)cc1 | – | inconclusive: 15.8 µM [inhibitor, partial curve] |

| Structure (SMILES) | activity, negative = inhibition | Potency |
| --- | --- | --- |
| COc1ccc(-c2csc(NC(=O)c3ccc(OCC(=O)N4CCOCC4)c(OC)c3)n2)cc1OC | – | inconclusive: 5.01 µM [inhibitor, partial curve] |
| CCC(C)Cn1c(C)nc2ccccc21 (centres undefined) | inactive: 2.03% | – |
| CCC(Sc1nnc2c3ccccc3n(CC)c2n1)C(=O)Nc1nnc(C(C)C)s1 (centres undefined) | inactive: 0.322% | – |
| Cc1cc(C(F)(F)F)nn1CC(=O)NNC(=S)Nc1cccc(Cl)c1 | inactive: 1.91% | – |
| CCn1c(COc2ccccc2C)nnc1SCC(=O)CC(=O)Nc1ccccc1OC | – | inconclusive: 25.1 µM [inhibitor, partial curve, poor fit] |
| COc1ccc2c(CNCCc3cccs3)c(C(=O)O)n(Cc3ccc(F)cc3Cl)c2c1 | – | inconclusive: 25.1 µM [inhibitor, single point] |
| COc1ccccc1NC(=O)N1CCCC(C(=O)Nc2cccc(C)c2C)C1 (centres undefined) | – | inconclusive: 15.8 µM [inhibitor, partial curve] |
| COC(=O)c1c(NC(=O)COC(=O)[C@@H](NS(=O)(=O)c2ccccc2)C(C)C)sc2c1CCC2 | – | inconclusive: 35.5 µM [inhibitor, single point] |
| N#C/C(=C(/O)c1ccc([N+](=O)[O-])s1)c1nc2ccccc2[nH]1 | – | inconclusive: 0.447 µM [inhibitor, full curve] |
| COc1ccc(/C=N/Nc2cc(N(C)C)nc(N(C)C)n2)cc1 | – | inconclusive: 14.1 µM [inhibitor, partial curve] |
| CCOC(=O)C1(C)C=C(Nc2ccc(NC(C)=O)cc2)C(=O)N1c1ccc(NC(C)=O)cc1 (centres undefined) | – | inconclusive: 20 µM [inhibitor, partial curve] |
| O=C(COC(=O)c1ccc(NS(=O)(=O)c2cccs2)cc1)Nc1nc2c(F)c(F)c(F)cc2s1 | – | inconclusive: 25.1 µM [inhibitor, single point] |
| CCOC(=O)c1cnc2cc(-c3ccc(OCC)cc3)nn2c1-c1ccccc1 | inactive: -1.79% | – |
| Cc1nnc(NC(=O)CSc2nc3ccccc3o2)s1 | – | inconclusive: 10 µM [inhibitor, partial curve, poor fit] |
| COc1ccccc1N1CCN(C(=O)Cn2c(=O)[nH]c3ccsc3c2=O)CC1 | – | inconclusive: 20 µM [inhibitor, partial curve, poor fit] |
| c1ccc2sc(Sc3ncnc4sccc34)nc2c1 | – | inconclusive: 14.1 µM [inhibitor, partial curve] |
| COc1cccc(CCNC(=O)c2c(O)nc3c(C)cccn3c2=O)c1 | – | inconclusive: 0.1 µM [inhibitor, full curve, poor fit] |
| CCn1c2ccccc2c2cc(NC(=O)CNC)ccc21 | – | inconclusive: 39.8 µM [inhibitor, single point] |
| COC(=O)C1=C(O)/C(=C\c2cc(C)n(-c3ccccc3F)c2C)N=C1C | – | inconclusive: 22.4 µM [inhibitor, single point] |
| C[C@@](N)(Cc1ccc(O)cc1)C(=O)O | – | inconclusive: 8.91 µM [inhibitor, single point] |
| COc1ccc(OCC(=O)c2c(O)c3ccccc3oc2=O)cc1 | – | inconclusive: 31.6 µM [inhibitor, single point] |
| CCOC(=O)/C(C#N)=C/C1=C(N2CCOCC2)C(C)(C)OCC1 | – | inconclusive: 20 µM [inhibitor, partial curve, poor fit] |
| Cc1c(Cl)cnc(NC(=O)COC(=O)c2ccc(S(=O)(=O)NCc3ccco3)cc2)c1Cl | – | inconclusive: 11.2 µM [inhibitor, partial curve] |
